# Data published in the supplement of paper PMC3334620.
# In all, about 33,000 sequences were measured (“E-score (-0.5 to 0.5)”: median about -0.054, highest 2% from about 0.39 on). The list shows a part of the results.
# Target: Ylr278c (UniProt Q05854)
# Experiment: PBM E-score (8-mer binding enrichment) (E-score (-0.5 to 0.5)); higher = stronger / more preferred TF binding; most listed sequences are background and not binding sites
# Details: protein concentration: 200 nM; construct: GST-DNA-binding domain
# In short: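 Detection of bound protein used fluorescent anti-GST, with scans normalised by masliner. The proteins were GST-tagged yeast transcription factors applied at about 100-200 nM to universal all-10-mer Agilent arrays made double-stranded by primer extension. Each ungapped eight-base word, pooled with its reverse complement, was scored with an E-score from the Universal PBM Analysis Suite.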
row,Sequence,PBM E-score
1,CCAGGAGG,-0.216
2,CAACAGAA,-0.186
3,ATTAGAAG,-0.0313
4,GGGGGAAA,0.198
5,CTAAATGC,0.0793
6,AAAGGGAA,-0.104
7,AACGAATG,-0.0195
8,CAGTATAC,-0.155
9,CAAATACG,-0.128
10,CGGGGTTC,0.401
11,CAAAGAGC,-0.0821
12,GGAGCCCC,0.21
13,CTTTTCAA,-0.221
14,ATTCAGCA,-0.186
15,CGCCGAGC,0.314
16,CCTTGTGC,-0.304
17,TGCCCCAA,-0.016
18,CGTAGACA,-0.189
19,GAGGTTAC,0.0243
20,GAAAATAC,0.148
21,AAATCATG,-0.17
22,CCGTAAAG,0.102
23,GGCGCCCA,0.0663
24,CTGGTGGA,-0.0947
25,CCAACGGA,0.317

row,Sequence,PBM E-score
1,AACGATCT,-0.0642
2,ATACAGGA,0.104
3,GCTACTCA,-0.134
4,AGCGCACT,-0.0926
5,ACCATCGG,0.184
6,ACCGCGTA,0.158
7,CTCAACTC,0.0467
8,AGAAACTC,0.152
9,CCGGTCAC,0.261
10,AGGGACCA,-0.291
11,GCTCCGCC,0.382
12,AGTCTACC,-0.124
13,ACTGTTAG,-0.39
14,ACGTTCGG,0.222
15,GCACGAGC,-0.104
16,GCATAGAC,-0.0629
17,AGAAACAT,-0.0446
18,GACACCCC,-0.00873
19,AGGACAGC,-0.162
20,CACTAACC,-0.108
21,ACAAGTGA,-0.139
22,CGAAGTGA,-0.148
23,GCGTACTA,-0.15
24,ATGAGCAA,-0.0881
25,AAGACGAT,-0.136

row,Sequence,PBM E-score
1,AGCGCGCC,0.172
2,CAAATCAC,-0.147
3,AGATGCCT,-0.357
4,AGTAAACG,-0.031
5,CGATGAAA,0.0464
6,CATATGGG,0.00815
7,GTCGCACA,-0.121
8,GCGCCAAA,0.0971
9,CCTCGGAC,0.374
10,ACTCGACG,0.0799
11,GCCTCCGC,0.361
12,CCGATTAA,0.333
13,GCCGTCCC,0.198
14,AATACTTC,0.0297
15,CGTAACCC,0.0779
16,ACATCGTC,-0.209
17,CATTGTCC,0.314
18,CGGTGCAG,0.0301
19,ACCTCTAC,-0.147
20,GGACCCCA,-0.0193
21,CAACTTTC,0.136
22,GAGAGGTA,-0.177
23,CTCTTTGC,-0.105
24,AACAGTTC,-0.0219
25,GTTAACAA,0.105

row,Sequence,PBM E-score
1,AAGACGGA,0.258
2,TATCTGAA,-0.0492
3,CTCGACCC,-0.101
4,AATTTCGA,-0.116
5,ATAGGAGC,-0.14
6,GAAGAGAA,-0.0362
7,GTAGATTA,0.172
8,CTAGACAC,-0.0911
9,ATAGGCTA,-0.215
10,CCTAATTC,-0.0306
11,TGCAGGAA,0.014
12,AAAAACCG,0.224
13,AAGCACTA,-0.26
14,CACTAGGA,-0.125
15,TATTGGCA,-0.126
16,GCTCCTTA,0.039
17,TCGCCCCA,-0.103
18,AACTACGA,-0.123
19,CCACTACC,-0.0808
20,GGAGCGCC,0.14
21,CCTCCGAC,0.405
22,CTAACACA,-0.0287
23,CCCGAGCC,0.248
24,ATGTTAGA,-0.332
25,CTATTATA,-0.105

row,Sequence,PBM E-score
1,AACAGGAA,-0.227
2,CATCTGTC,0.0369
3,CCAGTCCA,-0.17
4,CCCAAATC,-0.0603
5,CCAGGATC,-0.0423
6,ATCACTCG,-0.137
7,AGCTGCAG,0.0452
8,GTTTTAGA,-0.153
9,CCTAAAGG,-0.187
10,AGCAGGTC,-0.0366
11,AGACTGCA,-0.325
12,ACGCAGAA,-0.0444
13,ACAATTGA,-0.21
14,GTTTAAGA,0.0523
15,ACCGCAGC,0.0746
16,AGTTTGAA,0.0583
17,CTCTCAGC,-0.266
18,CCCGCTCG,0.198
19,AGATTAAC,-0.133
20,ATACCAGG,-0.15
21,CCACGGGC,0.176
22,ATAGTACG,0.0782
23,CAATGATC,-0.236
24,ATTGGACA,-0.0149
25,AAGCCAAG,-0.15

row,Sequence,PBM E-score
1,CATCGATG,-0.116
2,CACACGGA,0.343
3,GGGCTACC,-0.204
4,CTGCGACA,0.094
5,CTCAAGAG,-0.332
6,AGCTCTAA,-0.113
7,AGCATGCA,-0.287
8,CACTAATA,-0.0115
9,AGACACCT,-0.185
10,ATATTGTA,-0.0999
11,CCTTACCG,0.121
12,ATGTAGAC,-0.206
13,ATAGTTAG,0.0157
14,TAGGATGA,-0.143
15,GTATTGTA,0.0802
16,CACGTGCG,0.0856
17,CACCTCCA,0.0316
18,TAACAACA,-0.124
19,CTTGTTGC,-0.122
20,ATTAGCCG,0.2
21,ACCATAGC,-0.169
22,ACACGTTA,-0.323
23,AAAAATTC,0.0416
24,AAAAGCAC,-0.146
25,ATAATCAG,-0.0432

row,Sequence,PBM E-score
1,CATGGGTA,-0.0498
2,CGTATGAC,-0.0488
3,GTCTGGTA,-0.199
4,GATGAAGC,0.0542
5,GGCTCGAA,-0.0974
6,TCTACCCA,-0.14
7,GAGGACCC,0.0491
8,CACGTAAG,-0.21
9,CCGCTGTC,0.218
10,AAGCCTGC,-0.0717
11,ATTGACAA,-0.0408
12,TATACCGA,0.221
13,CCAGCAAA,-0.0997
14,AAATTTGC,-0.0386
15,AAATACTA,-0.165
16,ACCTAGCG,-0.129
17,ATAGCTGG,-0.0378
18,AGGGGCGG,0.273
19,CAATAGGG,-0.0831
20,CGAGTCCC,0.228
21,AAACCCAC,-0.0015
22,ACATTGTC,0.2
23,ACGAGCGT,-0.234
24,CGTCTGGA,-0.166
25,AGCCATGC,-0.0365

row,Sequence,PBM E-score
1,AGATGGGG,-0.218
2,AACTTAGA,-0.137
3,GGATCCTA,-0.0491
4,AGCTTTAT,-0.146
5,AAATAGCA,-0.0369
6,GACATTGA,0.0872
7,CCATCCAG,-0.239
8,CTCGCGGA,0.37
9,ATTTCCAA,0.0312
10,AGCTCACA,-0.249
11,CACTAGAC,-0.0784
12,ACTGCTAA,-0.185
13,ATAGTGCA,-0.0512
14,CCAACCGA,-0.17
15,AGGCCCCA,-0.11
16,GATGCAGA,-0.155
17,CTAACGAG,0.00302
18,CCTGAACG,0.0468
19,ACACACAA,-0.127
20,CGAGCGCC,0.182
21,AGCTGAGG,-0.201
22,CGAGGACC,-0.0858
23,CCGGTTCG,0.305
24,ACCCCTAA,-0.127
25,ACAAAGGT,-0.181

row,Sequence,PBM E-score
1,ACAAACGT,-0.21
2,CACTGCAA,-0.202
3,CCATAAGG,-0.401
4,AATCGGCG,0.323
5,TAAGGTCA,-0.21
6,ACGTCGCT,-0.0224
7,GGTTCCAC,-0.0232
8,CGCCCGGA,0.435
9,ACGGCCCA,0.0106
10,AGTTTCCG,0.384
11,CAGTCTAG,-0.227
12,ATTGGGCA,-0.18
13,CTAGGTCA,-0.237
14,ATCGCTGG,-0.0433
15,ACGTAGAA,-0.0803
16,TGAATCAA,-0.0372
17,ATCATCTC,0.089
18,GTTCAACA,-0.0482
19,AAACACCA,-0.136
20,AAAGTCTA,-0.118
21,ATTCCACA,0.115
22,GAGAACAA,0.127
23,ACTGACGC,-0.315
24,CCCATCAA,-0.136
25,TGCTGCCA,-0.168

row,Sequence,PBM E-score
1,CACCTTCC,-0.0509
2,GTATAGGA,-0.317
3,GCCCCAGC,-0.0856
4,AAGTTCCC,0.131
5,AGGACTTG,-0.209
6,GCGAAGGA,-0.16
7,AAATTAAG,-0.013
8,CTATAACC,-0.164
9,CCATGCGG,0.113
10,AGTTATTA,-0.0333
11,CTTCCTGC,-0.209
12,CAGTGCTA,-0.173
13,GTCATGCA,-0.0941
14,CCCCCACG,-0.214
15,ACATCGGA,0.377
16,AGCCTGTG,-0.305
17,ATCTCTAC,-0.218
18,CACTGCCG,0.215
19,GACTTTAA,-0.0643
20,ACCTTGTG,-0.131
21,ATAACAAA,0.119
22,AGACAGGG,-0.276
23,ACAACTTA,-0.219
24,GTCCGTTA,0.332
25,AAAATACA,-0.117

row,Sequence,PBM E-score
1,CGAATAGC,-0.211
2,GAAGGGCA,-0.045
3,CAGTCACC,-0.133
4,ACGGGTCT,-0.101
5,AGGATTTC,0.0497
6,AAGTAGCA,-0.224
7,CCTGTCAG,-0.18
8,ACTGCGCC,-0.0518
9,ATGGAACC,0.0323
10,CGCGTTAC,0.0774
11,GACCTAGA,-0.0337
12,CATAACGG,-0.0297
13,GTTAAAAC,-0.0331
14,TTCTAAAA,-0.0651
15,ATAATGCC,0.192
16,TACTCTGA,-0.128
17,CATTTCCC,0.161
18,CGTCCTAA,-0.21
19,GCGTGCAC,0.0261
20,ATGTCTAC,-0.1
21,AAAAAACT,-0.111
22,GATACATC,-0.201
23,ATGTTGGA,0.0684
24,GCTTTCCA,-0.0584
25,GGTTTTCA,0.129

row,Sequence,PBM E-score
1,AAGATGCC,-0.0338
2,CTCCAAAG,-0.174
3,AGGGGAAC,-0.183
4,ACTTTAGC,-0.0362
5,CCTACTCG,0.0578
6,CATAAACC,-0.0532
7,AGGTATGG,-0.0251
8,AGGCCGAG,0.232
9,TGGCTGAA,-0.111
10,ATGTCGGG,0.222
11,CAGATCGA,-0.113
12,AACACTAA,-0.126
13,AACAACTG,-0.075
14,GGAAATGA,0.158
15,GATAAGGA,-0.0687
16,AATCACGT,-0.0575
17,CGCTAGCA,-0.0779
18,GCACGAAC,-0.129
19,CCATCTAA,-0.194
20,GGAATCAC,0.197
21,AGAGCACG,-0.0334
22,AGAAGGGA,-0.283
23,GGAGGTTA,0.101
24,ACGGCCGC,0.191
25,GGAAGGGA,0.0118

row,Sequence,PBM E-score
1,AAACAACT,-0.11
2,CGGTCAGC,0.016
3,AAATTAGC,0.0491
4,CACCTCCC,-0.129
5,GCCGAGCA,0.168
6,GTATATCA,-0.148
7,AAAGAGGA,-0.158
8,CATTTGCC,-0.00499
9,ATACTGTA,-0.0669
10,GACGTCTA,-0.0686
11,ACAACCGG,0.312
12,TTCTGAAA,-0.0593
13,CGAGTACC,0.074
14,AGGCGCAC,0.0855
15,CACTTCAA,0.034
16,AATGATAC,-0.132
17,CACTGATC,-0.21
18,CGCCCTTA,0.0182
19,CCTGAAAC,-0.00792
20,CTTTACCC,-0.132
21,CATATTCA,-0.192
22,AGGGTGAA,-0.114
23,CGGCATGA,0.223
24,GGAGACCA,0.14
25,CTGCGTGC,0.0295

row,Sequence,PBM E-score
1,CCCTGCTC,-0.188
2,CTCTAGGC,-0.096
3,CCGGACGG,0.396
4,GGCGGACA,0.365
5,ACTCCCCG,0.338
6,AATTGCCG,0.286
7,GCCAGTTA,-0.0644
8,AGTCGTAT,-0.22
9,CGACCCTA,0.0211
10,CTTAAATA,-0.124
11,GGTGACCA,-0.119
12,GGCTTGGA,-0.259
13,CCGATGCG,0.361
14,CGGTACGA,-0.0494
15,ACCCATTA,-0.155
16,GCGTATCC,-0.0386
17,CAAGTGTG,-0.145
18,AAGGGGCT,-0.103
19,GTGCTTGA,-0.218
